# The supplement of paper PMC8728848
# Some of the results follow.
# B1: TbCVNHOa (Tuber borchii), Q5MK11 (protein)
# chain: GSHIGPYMSYADSSRNAVLTNGGRTLRAECRNADGNWVTSELDLDTCIGNPNGFLGWGMQNFSHSSEDIKLEEGGRKLTCRPKTVDGGFRERQGIDLNRIQNVNGRLVFQ
# What was measured:
# Assay in all cases: glycan array binding signal (z-score within array); higher = stronger binding
# Settings in all cases: glycan notation: IUPAC condensed, linker removed
# [1] = target: Gal(a1-4)GlcNAc
# Procedure, shortened: (§1)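 The binding signal is a Z-score computed within each array. Data were drawn from 3228 arrays in the Consortium for Functional Glycomics database, restricted to those with a known protein sequence. Scores were averaged over arrays of the same protein sequence at different concentrations or buffers, and over linkers, and negative values can be taken as non-binding.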
# [2] = target: Gal(a1-6)Glc
# Procedure, shortened: as §1
# [3] = target: Gal(b1-2)Gal
# Procedure, shortened: as §1
# [4] = target: Gal(b1-3)Gal
# Procedure, shortened: as §1
# [5] = target: Gal(b1-3)GalNAc
# Procedure, shortened: as §1
# [6] = target: Gal(b1-3)GalNAc(b1-3)Gal(a1-4)Gal(b1-4)Glc
# Procedure, shortened: as §1
# [7] = target: Gal(b1-3)GalNAc(b1-3)Gal(b1-4)Glc
# Procedure, shortened: as §1
# [8] = target: Gal(b1-3)GalNAc(b1-3)Gal(b1-4)GlcNAc
# Procedure, shortened: as §1
# [9] = target: Gal(b1-3)GalNAc(b1-4)Gal(b1-4)Glc
# Procedure, shortened: as §1
# [10] = target: Gal(b1-3)GalNAc(b1-4)[Neu5Ac(a2-3)]Gal(b1-4)Glc
# Procedure, shortened: as §1
# [11] = target: Gal(b1-3)[Fuc(a1-4)]GlcNAc
# Procedure, shortened: as §1
# [12] = target: Gal(b1-3)[Fuc(a1-4)]GlcNAc(b1-3)Gal(b1-4)GlcNAc
# Procedure, shortened: as §1
# [13] = target: Gal(b1-3)[Fuc(a1-4)]GlcNAc(b1-3)Gal(b1-4)[Fuc(a1-3)]GlcNAc
# Procedure, shortened: as §1
# [14] = target: Gal(b1-3)[GlcNAc(b1-6)]GalNAc
# Procedure, shortened: as §1
# [15] = target: Gal(b1-3)[GlcNAc(b1-6)]GlcNAc
# Procedure, shortened: as §1
# [16] = target: Gal(b1-3)[Neu5Ac(a2-6)]GalNAc
# Procedure, shortened: as §1
# [17] = target: Gal(b1-3)[Neu5Ac(a2-6)]GlcNAc
# Procedure, shortened: as §1
# [18] = target: Gal(b1-3)[Neu5Ac(a2-6)]GlcNAc(a1-4)Gal(b1-4)Glc
# Procedure, shortened: as §1
# [19] = target: Gal(b1-3)[Neu5Ac(b2-6)]GlcNAc
# Procedure, shortened: as §1
# [20] = target: Gal(b1-4)GalNAc(a1-3)[Fuc(a1-2)]Gal(b1-4)GlcNAc
# Procedure, shortened: as §1
# [21] = target: Gal(b1-4)GalNAc(b1-3)[Fuc(a1-2)]Gal(b1-4)GlcNAc
# Procedure, shortened: as §1
# [22] = target: Gal(b1-4)Glc
# Procedure, shortened: as §1
# [23] = target: Gal(b1-4)Glc6S
# Procedure, shortened: as §1
# [24] = target: Gal(b1-4)GlcNAc
# Procedure, shortened: as §1
# [25] = target: Gal(b1-4)GlcNAc(b1-2)Man(a1-3)[Gal(b1-4)GlcNAc(b1-2)Man(a1-6)]Man(b1-4)GlcNAc(b1-4)GlcNAc
# Procedure, shortened: as §1
# [26] = target: Gal(b1-4)GlcNAc(b1-3)Gal(b1-4)Glc
# Procedure, shortened: as §1
# [27] = target: Gal(b1-4)GlcNAc(b1-3)Gal(b1-4)GlcNAc
# Procedure, shortened: as §1
# [28] = target: Gal(b1-4)GlcNAc(b1-3)Gal(b1-4)GlcNAc(b1-3)Gal(b1-4)GlcNAc
# Procedure, shortened: as §1
# [29] = target: Gal(b1-4)GlcNAc(b1-3)Gal(b1-4)[Fuc(a1-3)]GlcNAc(b1-3)Gal(b1-4)[Fuc(a1-3)]GlcNAc
# Procedure, shortened: as §1
# [30] = target: Gal(b1-4)GlcNAc(b1-3)GalNAc
# Procedure, shortened: as §1
# [31] = target: Gal(b1-4)GlcNAc(b1-3)[Gal(b1-4)GlcNAc(b1-6)]GalNAc
# Procedure, shortened: as §1
# [32] = target: Gal(b1-4)GlcNAc(b1-6)GalNAc
# Procedure, shortened: as §1
# [33] = target: Gal(b1-4)GlcNAc(b1-6)[Gal(b1-3)]GalNAc
# Procedure, shortened: as §1
# [34] = target: Gal(b1-4)GlcNAc(b1-6)[Gal(b1-3)]GlcNAc
# Procedure, shortened: as §1
# [35] = target: Gal3S(b1-3)GalNAc
# Procedure, shortened: as §1
# [36] = target: Gal3S(b1-3)GlcNAc
# Procedure, shortened: as §1
# [37] = target: Gal3S(b1-3)[Fuc(a1-4)]GlcNAc
# Procedure, shortened: as §1
# [38] = target: Gal3S(b1-4)Glc
# Procedure, shortened: as §1
# [39] = target: Gal3S(b1-4)Glc6S
# Procedure, shortened: as §1
# [40] = target: Gal3S(b1-4)GlcNAc
# Procedure, shortened: as §1
# [41] = target: Gal3S(b1-4)GlcNAc6S
# Procedure, shortened: as §1
# [42] = target: Gal3S6S(b1-4)GlcNAc
# Procedure, shortened: as §1
# [43] = target: Gal3S6S(b1-4)GlcNAc6S
# Procedure, shortened: as §1
# [44] = target: Gal4S(b1-4)GlcNAc
# Procedure, shortened: as §1
# [45] = target: Gal4S6S(b1-4)GlcNAc
# Procedure, shortened: as §1
binder,measurement,setting,value
B1,glycan array binding signal (z-score),[1],-0.262
same,glycan array binding signal (z-score),[2],0.445
same,glycan array binding signal (z-score),[3],-0.085
same,glycan array binding signal (z-score),[4],-0.259
same,glycan array binding signal (z-score),[5],-0.261
same,glycan array binding signal (z-score),[6],-0.266
same,glycan array binding signal (z-score),[7],5.6
same,glycan array binding signal (z-score),[8],-0.288
same,glycan array binding signal (z-score),[9],-0.271
same,glycan array binding signal (z-score),[10],-0.14
same,glycan array binding signal (z-score),[11],-0.238
same,glycan array binding signal (z-score),[12],-0.236
same,glycan array binding signal (z-score),[13],-0.246
same,glycan array binding signal (z-score),[14],-0.307
same,glycan array binding signal (z-score),[15],-0.274
same,glycan array binding signal (z-score),[16],-0.291
same,glycan array binding signal (z-score),[17],-0.266
same,glycan array binding signal (z-score),[18],1.8
same,glycan array binding signal (z-score),[19],-0.275
same,glycan array binding signal (z-score),[20],-0.226
same,glycan array binding signal (z-score),[21],-0.277
same,glycan array binding signal (z-score),[22],-0.264
same,glycan array binding signal (z-score),[23],-0.236
same,glycan array binding signal (z-score),[24],-0.238
same,glycan array binding signal (z-score),[25],-0.282
same,glycan array binding signal (z-score),[26],2.73
same,glycan array binding signal (z-score),[27],-0.288
same,glycan array binding signal (z-score),[28],-0.058
same,glycan array binding signal (z-score),[29],-0.219
same,glycan array binding signal (z-score),[30],-0.267
same,glycan array binding signal (z-score),[31],-0.276
same,glycan array binding signal (z-score),[32],-0.295
same,glycan array binding signal (z-score),[33],-0.229
same,glycan array binding signal (z-score),[34],-0.258
same,glycan array binding signal (z-score),[35],-0.317
same,glycan array binding signal (z-score),[36],-0.261
same,glycan array binding signal (z-score),[37],-0.153
same,glycan array binding signal (z-score),[38],-0.255
same,glycan array binding signal (z-score),[39],-0.204
same,glycan array binding signal (z-score),[40],-0.26
same,glycan array binding signal (z-score),[41],-0.275
same,glycan array binding signal (z-score),[42],-0.229
same,glycan array binding signal (z-score),[43],-0.289
same,glycan array binding signal (z-score),[44],0.003
same,glycan array binding signal (z-score),[45],-0.257
